Values joined by “and” are separate entries in the source; they are usually repeats but may differ in a detail not shown here. Equal values may be shown once. The whole screen tested about 350,000 compounds, of which about 9,900 (2.8%) were called active. This list was built around the results that the source calls inconclusive (neither active nor inactive); the mix of calls is not that of the screen. Calls come from the whole dose curve; as a rule, active = well fitted activation curve with a large enough effect; inconclusive = small, poorly fitted or top-dose-only effect; inactive = no such curve, though single readings can be large or run the other way. A potency beside an inconclusive call is a rough fit, not a confirmed value.
Experiment: A quantitative high throughput screen for small molecules that induce DNA re-replication in MCF 10a normal breast cells. Note: nearly all actives have a fitted effect of over 50% in size.
Conditions: MCF 10A DNA re-replication, Hoechst nuclear intensity, 48 h; series mostly up to 46.1 µM
Potency is the fitted concentration of half-maximal effect; tags give direction and shape of the fitted curve.

SMILES | Potency
CCn1nc(C)c([N+](=O)[O-])c1C(=O)NNC(=O)c1ccc(Cl)cc1 | inconclusive: 23.1 µM [activator, single point]
Cc1cnc(CN2CCCC(C(=O)c3ccc4c5c(cccc35)CC4)C2)[nH]1 (stereo not drawn) | inconclusive: 29.1 µM [activator, single point]
COc1ccc(-c2csc(N)n2)cc1F | inconclusive: 1.16 µM [activator, single point]
CC(C)n1ncc2c(C(=O)NCc3ccccc3CN(C)C)cc(C3CC3)nc21 | inconclusive: 29.1 µM [activator, single point]
COc1ccc(NS(=O)(=O)c2cccc(C(=O)NCc3ccccc3CN3CCOCC3)c2)cc1 | inconclusive: 29.1 µM [activator, single point]
Cc1[nH]c2ccccc2c1/C=C/c1nc2ccccc2c(=O)[nH]1 | active: 23.1 µM
COC(=O)[C@]1(CC(C)C)N[C@H](c2ccc(-c3ccc(F)cc3)cc2)[C@@H]2C(=O)N(C)C(=O)[C@@H]21 | inactive
CCc1nc(Sc2nnnn2-c2ccccc2)c2c3c(sc2n1)CCCC3 | active: 18.4 µM
O=C(Nc1ccccc1)c1cnc(-c2ccccc2)nc1-c1ccccc1 | inconclusive: 18.4 µM [activator, single point]
CCn1c(=O)c(C(=O)Nc2ncccc2O)c(O)c2ccccc21 | inconclusive: 23.1 µM [activator, single point]
Cc1nn(CCO)c2nc(-c3cccs3)cc(C(F)(F)F)c12 | inconclusive: 2.06 µM [activator, partial curve, poor fit]
N#CC1=C(N)NC(SCC(=O)c2ccc(Br)cc2)=C(C#N)C12CCCCC2 | inconclusive: 16.4 µM [activator, single point]
COc1ccc(C(=O)OCC(=O)N2CCN(S(=O)(=O)c3ccc(C)cc3)CC2)cc1[N+](=O)[O-] | inactive
Cc1cc(NC(=O)CCSc2ccccc2)ccc1Br | inconclusive: 13 µM [activator, partial curve]
O=C(O)CSc1ncnc2sc3c(c12)CCC3 | inconclusive: 16.4 µM [activator, partial curve]
S=c1nc(NCc2cccc(Cl)c2)c2ccccc2[nH]1 | inactive
COc1ccc(NC(=S)N(CCCN2CCOCC2)Cc2cn(C)c3ccccc23)cc1OC | inactive
Cc1nc(SCC(=O)N2CCC(Cc3ccccc3)CC2)[nH]c(=O)c1C | inconclusive: 18.4 µM [activator, single point]
COc1ccc(-c2ccc(C3C(C#N)=C(N)Oc4n[nH]c(C)c43)o2)cc1 (stereo not drawn) | inconclusive: 25.9 µM [activator, single point]
CCC(=O)Nc1c(-c2ccc(C)cc2)nc2ccc(C)cn12 | inconclusive: 2.91 µM [activator, partial curve, poor fit]
O=C(Nc1ncccc1O)c1c(O)c2ccccc2[nH]c1=O | inconclusive: 20.6 µM [activator, single point]
CC(C)C(=O)OCC(=O)[C@@]12OC(C3CCCCC3)O[C@@H]1CC1C3CCC4=CC(=O)C=C[C@]4(C)C3[C@@H](O)C[C@@]12C (stereo partly drawn) | inconclusive: 18.8 µM [activator, partial curve]
COc1ccccc1OCCCCCCN1CCN(C)CC1 | inconclusive: 9.2 µM [activator, partial curve]

SMILES | Potency
CCSc1nc(N)c(C#N)c(-c2ccccc2Cl)c1C#N | inconclusive: 25.9 µM [activator, partial curve, poor fit]
NC(=O)c1cc(C(=O)Cc2ccc(Cl)cc2)c[nH]1 | inactive
Cc1ccc2c(c1)C(=O)C(=O)N2Cc1ccccc1 | inconclusive: 20.6 µM [activator, single point]
COc1cc(C)c(C)cc1S(=O)(=O)N1CCCCC1c1cccnc1 (stereo not drawn) | inconclusive: 29.1 µM [activator, partial curve, poor fit]
O=C1OC(c2ccccc2)=NC12CC2c1ccc(Cl)cc1 (stereo not drawn) | inconclusive: 23.1 µM [activator, single point]
COC(=O)[C@@H](Cc1c[nH]c2ccccc12)NC(=O)c1ccc2c(c1)OCO2 | inactive
Nc1cc(=O)n(Cc2ccccc2)c(=O)n1-c1ccc(F)cc1 | inconclusive: 20.6 µM [activator, single point]
CC[C@]12C(=O)N(C)C[C@H]([C@@H]3C(=O)N(Cc4ccccc4)C(=O)[C@@H]31)N2C(=O)c1ccc(C(F)(F)F)cc1 | inactive
Cc1cccc(NC(=O)CCN2C(=O)C3C4CCC(C4)C3C2=O)c1C (stereo not drawn) | inconclusive: 29.1 µM [activator, single point]
O=c1c2ccccc2nc(/C=C/c2cccc(Br)c2)n1CCCO | inconclusive: 18.4 µM [activator, single point]
CCOC(=O)/C=C1/SCC(=O)N1CC(=O)Nc1ccc2c(c1)CCC2 | inactive
COc1cc(/C=N/NC(=O)/C(=C/c2ccccc2)CCO)ccc1O | inactive
CC(C)C[C@H](NC(=O)c1[nH]cnc1C(=O)Nc1ccccc1)C(=O)OC(C)(C)C | inconclusive: 20.6 µM [activator, single point]
COc1cc(C2C(C(=O)/C=C/c3ccccc3)=C(O)C(=O)N2c2ccccn2)ccc1O (stereo not drawn) | inconclusive: 14.6 µM [activator, partial curve, poor fit]
COc1ccccc1Nc1nc(NCC2CCCO2)c2ccccc2n1 (stereo not drawn) | inconclusive: 16.4 µM [activator, single point]
O=Cc1ccc(OC(=O)c2cc(Cl)nc3ccccc23)cc1 | inconclusive: 29.1 µM [activator, single point]
COc1cccc(CNc2nccs2)c1O | inconclusive: 6.51 µM [activator, single point]
COc1ccc(NS(=O)(=O)c2ccc(OC)c(NC(=O)CNC(=O)c3ccc(OC)cc3)c2)cc1 | inactive
COc1ccc(-c2oc(=O)c3cc(OC)c(OC)cc3c2C#C[C@]2(O)CC[C@H]3[C@@H]4CCc5cc(OC)ccc5[C@H]4CC[C@@]32C)cc1 | inconclusive: 8.2 µM [activator, partial curve, poor fit]
COc1ccc(OC)c(C(=O)c2oc3ccccc3c2NC(C)=O)c1 | inactive
CCOC(=O)Cc1cc(=O)n(-c2nc3ccccc3s2)[nH]1 | inconclusive: 5.62 µM [activator, full curve, poor fit]
CC(=O)OC(C(=O)NCc1ccc2c(c1)OCO2)c1ccccc1Cl (stereo not drawn) | inconclusive: 20.6 µM [activator, single point]
CC(C)[C@H](NS(=O)(=O)c1ccc(Cl)cc1)C(=O)OCC(=O)NCCN1C(=O)CSC1=O | inactive

SMILES | Potency
CCc1c(C)nc(SCC(=O)N2C(C)CCCC2C)[nH]c1=O (stereo not drawn) | inconclusive: 0.651 µM [activator, full curve, poor fit]
COc1ccc(N2CCN(C(=O)CN3CCN(c4nc(-c5ccc(F)cc5)cs4)CC3)CC2)cc1 | inconclusive: 23.1 µM [activator, single point]
CCOC(=O)C1CCN(C(=O)CN(C)S(=O)(=O)c2cc(C)ccc2OC)CC1 | inactive
CC(=O)Nc1cccc(NC(=O)CSc2nc(C3CC3)nc3ccccc23)c1 | inactive
Cc1cccn2c(=O)c(C=O)c(N3CCN(C)CC3)nc12 | inactive
Cc1cccc(OCc2n(CC(=O)OC3CC(C)CCC3C(C)C)c3ccccc3[n+]2C)c1 (stereo not drawn) | inconclusive: 7.31 µM [activator, full curve, poor fit]
CCOC(=O)c1ccc(NC(=O)Nc2ccc3c4c(cccc24)C(=O)N3CC)cc1 | active: 23.1 µM
CCN1C(=O)c2cccc3c(S(=O)(=O)NCc4ccco4)ccc1c23 | active: 11.6 µM
CCOc1ccc2[nH]c3c(NCCN(CC)CC)ncnc3c2c1 | inactive
Cc1nc2ccccc2nc1N/N=C/c1ccc(O)cc1O | inconclusive: 20.6 µM [activator, single point]
CCCCN(C(=O)c1cc(=O)[nH]c2ccccc12)c1c(N)n(CCCC)c(=O)[nH]c1=O | inactive
CCCCN1C2CCCC1CC(NC(=O)c1cccc(OC)c1)C2 (stereo not drawn) | inconclusive: 29.1 µM [activator, single point]
COC(=O)C1C2CCCCC1C(=O)O2 (stereo not drawn) | inactive
CCCN(CC(=O)Nc1cc(Cl)cc(Cl)c1)CC(=O)Nc1ccc(F)c(F)c1F | inconclusive: 29.1 µM [activator, single point]
CCOC(=O)c1c(NC(=O)Nc2ccc(C)cc2)sc2c1CCN(C)C2 | inconclusive: 0.231 µM [activator, full curve, poor fit]
OCCC1CN(Cc2c(F)cccc2Cl)CCN1C1CCCC1 (stereo not drawn) | inconclusive: 1.64 µM [activator, partial curve, poor fit]
COC(=O)c1ccccc1NC(=O)c1ccccc1OC | inactive
CNCCCC1c2ccccc2C=Cc2ccccc21 | inactive and inconclusive: 29.1 µM [activator, partial curve, poor fit]
O=C(Nc1ccccc1)Nc1ccc(Nc2ccccc2)cc1 | inconclusive: 29.1 µM [activator, partial curve, poor fit]
O=C(CSc1ccc2nnc(CCNC(=O)c3ccccc3)n2n1)NCc1ccccc1 | inconclusive: 14.6 µM [activator, single point]
COc1ccccc1N1CCN(C(=O)/C=C/c2c(Cl)nc3ccccn23)CC1 | inactive
CC(=O)c1c(C)nn(CCC(=O)O)c1C | inconclusive: 29.1 µM [activator, partial curve, poor fit]
